Assay results as given in the supplement of paper PMC11417369.
This is one part of the list.

What follows are sequences tested on PfAP2-HC AP2 domain (GST-tagged) (assay: gcPBM binding intensity (ln(normalized median fluorescence intensity)); higher = stronger DNA binding).
Summary of the method: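 Binding intensity is the highest Masliner-normalised natural-log median intensity over replicate spots in either probe orientation. To obtain it, GST-tagged P. falciparum DNA-binding domains made in E. coli were incubated for 1 h on an Agilent 4 × 180k array of primer-extended double-stranded 36-bp intergenic genomic probes plus negative controls. Detection used Alexa488 anti-GST antibody with scanning at 488 nm.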

First: TTCATTAATGTGTAATGTACTTGTAATATGGGATTA [XGTACX_site3903]
Second: CATTTTTTAATAATAGCACACAGGACATACAAAACA [CACACA_site1245]
The “gcPBM binding intensity (ln)” value of the first is lower: 9.48 for the first, 10 for the second.

Going from “TGTTCTCTTCTTTTTTATTTTCCAAAGTAATAAGTT [TGCATGCA_negctrl_site424]” to “TATATATATTTATATGCATGTAATATATTTGTATTG [TGCATGCA_site323]”, the “gcPBM binding intensity (ln)” value rises from 9.51 to 9.71.

Going from “TAAATAAGTATTACTAGTACACACAAGTTGTTAATC [XGTACX_site7074]” to “AATTATTTTATGAAAAGTACACATTGTTTTAATTCT [XGTACX_site4506]”, the “gcPBM binding intensity (ln)” value falls from 9.79 to 9.47.

Compared with “CATAAATCAGCCATAACACACATACATAAATACATA [CACACA_site4380]”, “TTAATTATAATTATATGTACGAACTTTTTTTTTTTT [XGTACX_site6586]” is lower in “gcPBM binding intensity (ln)” value: 10.2 for the first, 9.47 for the second.

Going from “AGAAAAAAGAGGGATACACACAAACATATATATATA [CACACA_site5269]” to “AAATTGATTATAAATTGTACAAGAACATACAACCTT [XGTACX_site5986]”, the “gcPBM binding intensity (ln)” value falls from 10.8 to 9.72.

Compared with “CAAAAGCGATACGGCACACATTTCCTGTTTAAATGA [CACACA_site5519]”, “TTAATTTTTAGAAGAACACACACATATATATTATGA [CACACA_site7969]” is higher in “gcPBM binding intensity (ln)” value: 9.75 for the first, 9.93 for the second.

Compared with “TTATATATTTTATTATTTATAATCTTTTTTTTATTT [CACACA_negctrl_site112]”, “TCATATAGATTATACACACACATATATAGATATATA [CACACA_site6587]” is higher in “gcPBM binding intensity (ln)” value: 9.73 for the first, 10.5 for the second.

Compared with “TTATATTTCAATTAAACATGCATTTTTGTGTAGCAC [TGCATGCA_site214]”, “TATTATTTATTATATGCACACATCGAACTATTATTT [CACACA_site2544]” is higher in “gcPBM binding intensity (ln)” value: 9.45 for the first, 10.1 for the second.

First: TATTCGAAAGAATAGGCATGCAAACATATCTTATTA [TGCATGCA_site147]
Second: TTCTATATTATATATGCATGTGTTATTCTTATTTTC [TGCATGCA_site92]
The “gcPBM binding intensity (ln)” value of the first is lower: 9.93 for the first, 10.1 for the second.

Compared with “AAACATATAAATCACGGTACACATTATTGAAAGTGT [XGTACX_site2966]”, “ATATAATATTAGTGCACACACAAAAATGTACTAAAC [CACACA_site632]” is higher in “gcPBM binding intensity (ln)” value: 9.76 for the first, 10 for the second.

Going from “ATAAAGAAACATATATGTACTTATATATATATATAT [XGTACX_site5625]” to “ATATATATTATATGCACACTTATATTTCATTAGATT [CACACA_site2599]”, the “gcPBM binding intensity (ln)” value falls from 9.69 to 9.68.

Going from “ATTGTATCTGTATATGCACACAATATCTGTACTTCT [CACACA_site5445]” to “AAATAATTAAAAAAAAGTACACATGTGACTACATAT [XGTACX_site8767]”, the “gcPBM binding intensity (ln)” value falls from 10 to 9.8.

Compared with “TCATCATATTATATATGTACATATATAATAATTTAT [XGTACX_site1625]”, “TTATAATTTTTTTTTGCATGTGGGTTTTTTTTTGTT [TGCATGCA_site968]” is higher in “gcPBM binding intensity (ln)” value: 9.66 for the first, 9.71 for the second.

First: TATATATATGTATACACACATACAAATATGTAAAAA [CACACA_site3720]
Second: CGAAATCATATGTACACACACATATATATATATATA [CACACA_site2151]
The “gcPBM binding intensity (ln)” value of the first is lower: 9.72 for the first, 9.94 for the second.

First: TTTCAATACTGAAACTGTACTTGTTTTACTTCTATT [XGTACX_site5924]
Second: CATATTATTTAAACATGTACTCACATATAAATATAA [XGTACX_site6096]
The “gcPBM binding intensity (ln)” value of the first is higher: 9.89 for the first, 9.57 for the second.

Going from “ATGAGTATACTAAGAACACACAAGTTACTTGGTGTT [CACACA_site4981]” to “TAAAAAAAAAAAATGTGTACATATTATATATATCTT [XGTACX_site2615]”, the “gcPBM binding intensity (ln)” value falls from 9.83 to 9.6.

Compared with “TTTTTTATTATTATGTGTACGAATATGTGCATATAA [XGTACX_site1364]”, “TATAACAAGTAATGTTGTACATTATATTATGTAATA [XGTACX_site2769]” is higher in “gcPBM binding intensity (ln)” value: 9.65 for the first, 9.77 for the second.

First: TTTTTTCTCTATATATGTACATATAAAAAATATATC [XGTACX_site6382]
Second: GTTACACAAACAAACACACACACACGCACGCACAAA [CACACA_site7191]
The “gcPBM binding intensity (ln)” value of the first is lower: 9.56 for the first, 11.3 for the second.

First: CAAAATTAATAAGTCACACACACATCTATAATATAT [CACACA_site6519]
Second: TTCTTTATTTTTTCTACACACATTAGATATTCAAAG [CACACA_site7624]
The “gcPBM binding intensity (ln)” value of the first is higher: 10.3 for the first, 9.82 for the second.

First: TATATATATATATTCACACATAAGATGAATAAAGTG [CACACA_site4225]
Second: ACCATAACATGAATTACAGGAATTGAAAATGTTCCA [CACACA_negctrl_site649]
The “gcPBM binding intensity (ln)” value of the first is higher: 9.7 for the first, 9.53 for the second.

First: GGTTACATTTTATTTTGTACATAAAAATTTTTATTT [XGTACX_site218]
Second: GTATTATATATAAAAGTGCATATTTTTTTCCCTTAC
The “gcPBM binding intensity (ln)” value of the first is higher: 9.78 for the first, 9.66 for the second.

First: ATTTTATAATTTATATCACACACATATATATATAGT [CACACA_site7885]
Second: TGTTTATAAATATAAAAAAATATATATATATATTAT [GTGCAC_negctrl_site247]
The “gcPBM binding intensity (ln)” value of the first is higher: 10.1 for the first, 9.54 for the second.

First: TGTCCCCCTTTCTATGCACACTTTAAATTATTCAAA [CACACA_site4200]
Second: AAAAAAAAAATACATACACACACACCCACCCATATA [CACACA_site9187]
The “gcPBM binding intensity (ln)” value of the first is lower: 9.91 for the first, 10.5 for the second.

Compared with “ATTAATCCAAATGAATGTACTTAATAATGTAATTAT [XGTACX_site8946]”, “AATGATATATTATAAACACACAAAGATGGATATATA [CACACA_site7349]” is higher in “gcPBM binding intensity (ln)” value: 9.59 for the first, 9.82 for the second.

Going from “TTATATATAAATGAAAGTACAAAACAGGAAAGAATA [XGTACX_site1076]” to “ATATATAATATATGTGGTACGCAAAATATTATATTA [XGTACX_site4969]”, the “gcPBM binding intensity (ln)” value falls from 9.87 to 9.76.

Going from “AATACACGCAAACACACACACACACCCACATATATA [CACACA_site638]” to “TCAATATACCAAAAATGTACAAAAAATAAACAATAT [XGTACX_site8251]”, the “gcPBM binding intensity (ln)” value falls from 10.8 to 9.78.

First: TTTATATTATAATATAATAATGATCTTAATTTTTTT [XGTACX_negctrl_site100]
Second: GAACATTTCACATGGTGTACTCTCTTTTTCAAATAA [XGTACX_site1632]
The “gcPBM binding intensity (ln)” value of the first is lower: 9.44 for the first, 9.62 for the second.

Going from “ATATTTAGAATGTTCCTACACACCAAATTTAAGTGG [CACACA_site2346]” to “TTTATTTTACAAAAAAGTACAAGAAGAAATATCAAT [XGTACX_site7812]”, the “gcPBM binding intensity (ln)” value falls from 9.8 to 9.52.

“TATTAAAAGTAAAAAACACACATGGATAAATACATA [CACACA_site6048]” and “ATAACATACATAACAACACACAATATTTATCTGTAT [CACACA_site4279]” are the same in “gcPBM binding intensity (ln)” value: 10 for the first, 10 for the second.

Compared with “CTCTATATATTATTATGTACTAAATGTATGTATGTA [XGTACX_site7151]”, “TTCTTCTGTTTTATTACACACCATTTTGTGTCTACA [CACACA_site8643]” is higher in “gcPBM binding intensity (ln)” value: 9.7 for the first, 10.5 for the second.

First: TAACACACTAAGAAAAGTACTGATTAATATAATTTT [XGTACX_site5536]
Second: AAAACACAATTTATTACACACATATATTATATATTA [CACACA_site1420]
The “gcPBM binding intensity (ln)” value of the first is lower: 9.69 for the first, 9.77 for the second.

Going from “ATGAATGAATAAAGAAGTACGGAAATATTAACAAAA [XGTACX_site4695]” to “TACGCCTATAACGGCTGTACACCTTACTTTTTTTAA [XGTACX_site6818]”, the “gcPBM binding intensity (ln)” value falls from 9.71 to 9.7.

Compared with “TATGATTTTTATATATGTACGTATGGTGTTTTACAA [XGTACX_site6100]”, “AATAAATTTCAAAATTGTACTCATTTCCTTTCCCAA [XGTACX_site5887]” is lower in “gcPBM binding intensity (ln)” value: 9.69 for the first, 9.44 for the second.

Going from “TGTGAAATAAAATTTGTACACACATATATATATATA [CACACA_site8093]” to “TTCATTCAAATCCAAGCATGCTTTATTAAAAAATTA [TGCATGCA_site567]”, the “gcPBM binding intensity (ln)” value falls from 9.74 to 9.17.

Compared with ATATATAATTCCCAAGTGCATTTATTTTAATTATTA, “ATATATATATATATATGTACACATATATTTCTTTTC [XGTACX_site3443]” is higher in “gcPBM binding intensity (ln)” value: 9.54 for the first, 9.62 for the second.

First: ATAAAATTTTATATGGGTACATAATATAATATATAT [XGTACX_site8160]
Second: ATTCCTGGACCGTTCATGCACTTGCAGAACGTCCAT
The “gcPBM binding intensity (ln)” value of the first is higher: 9.65 for the first, 9.48 for the second.

Compared with “TTTATGAAATGTTGCACACAAAAAACAACATGTTTT [CACACA_site1440]”, “TTTAAAAATTAATTCTGTACACATTTTTATTATATT [XGTACX_site4212]” is higher in “gcPBM binding intensity (ln)” value: 9.77 for the first, 9.78 for the second.

First: AAATGATATAAATTATAAAATGGATTTTTTCCATTG [CACACA_negctrl_site420]
Second: AAAAAAAAAAAAAGTGCACACGATTTAAGGCCTATA [CACACA_site2823]
The “gcPBM binding intensity (ln)” value of the first is lower: 9.43 for the first, 9.99 for the second.

Compared with “CTTAAAATGATAATATGTACACATAAATAATATATA [XGTACX_site8330]”, “TTTTTTGACATTCCTTTTAATAATTAACGAAAGGCA [GTGCAC_negctrl_site377]” is lower in “gcPBM binding intensity (ln)” value: 9.7 for the first, 9.13 for the second.

Compared with “TAAGTTTGTCAATCAACACACACCTATTTATTATAT [CACACA_site3919]”, “CACTTTAATTTATGCACACATATGGAACAACAGCCA [CACACA_site994]” is lower in “gcPBM binding intensity (ln)” value: 10.2 for the first, 9.81 for the second.

Going from “TATAATCAATGCCAAAGTACATATTAATATATTTAT [XGTACX_site4558]” to “ATTGAAAAATAAAAATGTACACATGTAGCATACCAT [XGTACX_site3275]”, the “gcPBM binding intensity (ln)” value rises from 9.59 to 9.98.

Compared with “AATATATCGCATAGTTGTACAGAATTTTTACTTTTA [XGTACX_site8192]”, “TATATAATATTACGTTGTACACTTTAATCTCCCTTC [XGTACX_site5577]” is higher in “gcPBM binding intensity (ln)” value: 9.6 for the first, 9.63 for the second.

Compared with “ACCATTTGAAAATTCACACACTTTATTTTGTTATAT [CACACA_site5976]”, “ACTAATATGCAATATTGTACATATATATAGAAATAT [XGTACX_site5273]” is lower in “gcPBM binding intensity (ln)” value: 10.1 for the first, 9.65 for the second.

Compared with “AAATGTATACACATGGTGCGTAATATATTATATATA [GTGCAC_site9877]”, “CTACCAAATCTATAGACACACATATATATATATATT [CACACA_site2486]” is higher in “gcPBM binding intensity (ln)” value: 9.79 for the first, 9.9 for the second.

For “GAACTAATAATGAAAAGTACACATACACATATATAT [XGTACX_site6789]”, the “gcPBM binding intensity (ln)” value was 9.88.
